The supplement of paper PMC10369915
The other results are listed elsewhere or left out. Cut-off read from the data, not from the text of the source: active = 3.2 or more and inactive = the rest. The signal is at background level for most entries.

target: SHP2 C-SH2 domain E139D; experiment: enrichment score (SH2-bound / input frequency) (ratio); bacterial display of known human phosphotyrosine sites (pTyr-Var adds point mutants) read by sequencing; higher = stronger binding; tyrosines were phosphorylated by kinases first; settings: peptide library: pTyr-Var
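Note: displayed peptides selected on beads carrying the immobilized SH2 domain, with library peptides lacking any tyrosine serving as negative controls.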

Binder	enrichment score
SVEELYAIPPD [PEAK1_Y797]	inactive: 0.74
SNKLYYQLEQE [PDPR_Y110]	inactive: 1.01
SNSATYSGSVA [PDLIM5_Y382]	inactive: 0.387
SLGSPYEQPPR [PDLIM4_Y137_G138E]	inactive: 0.487
SNKLFYQLEQE [PDPR_Y110_YF]	inactive: 0.985
ASTDFNKRGDF [PDHA1_Y243_Y243N_YF]	inactive: 0.469
AASTDYYKRGD [PDHA1_Y242]	inactive: 0.384
YRDALYKFMVD [PHEX_Y250]	inactive: 1.34
LQTYHYHGHSM [PDHA1_Y289_R288H]	active: 3.92
LNARHYGGLTG [PGAM2_Y92_E89A]	inactive: 0.939
RLFARYFQGDL [PDK3_Y337_YF]	inactive: 0.507
FSNKLYFQLEQ [PDPR_Y109_YF]	inactive: 1.03
RLRAAYNLVKR [PFKM_Y103]	inactive: 0.241
LFIDSYEKDVA [PGM1_Y521_YF]	inactive: 0.756
SLGSPYGQPPC [PDLIM4_Y137_R142C]	inactive: 0.586
ASTDYNKRGDF [PDHA1_Y243_Y243N]	inactive: 0.54
KRISCYEASYQ [PFKFB3_Y194]	inactive: 0.834
RASQEYHIVKK [PDZD2_Y557_S552R]	inactive: 0.874
YSNKLHYQLEQ [PDPR_Y109_Y109H]	inactive: 0.73

target: SHP2 C-SH2 domain wild-type; experiment: as above; settings: peptide library: pTyr-Var

Binder	enrichment score
SVEELYAIPPD [PEAK1_Y797]	inactive: 0.477
SNKLYYQLEQE [PDPR_Y110]	inactive: 0.8
SNSATYSGSVA [PDLIM5_Y382]	inactive: 0.309
SLGSPYEQPPR [PDLIM4_Y137_G138E]	inactive: 0.669
SNKLFYQLEQE [PDPR_Y110_YF]	inactive: 0.875
ASTDFNKRGDF [PDHA1_Y243_Y243N_YF]	inactive: 0.619
AASTDYYKRGD [PDHA1_Y242]	inactive: 0.523
YRDALYKFMVD [PHEX_Y250]	inactive: 1.6
LQTYHYHGHSM [PDHA1_Y289_R288H]	active: 3.62
LNARHYGGLTG [PGAM2_Y92_E89A]	inactive: 0.681
RLFARYFQGDL [PDK3_Y337_YF]	inactive: 0.433
FSNKLYFQLEQ [PDPR_Y109_YF]	inactive: 0.892
RLRAAYNLVKR [PFKM_Y103]	inactive: 0.24
LFIDSYEKDVA [PGM1_Y521_YF]	inactive: 0.773
SLGSPYGQPPC [PDLIM4_Y137_R142C]	inactive: 0.668
ASTDYNKRGDF [PDHA1_Y243_Y243N]	inactive: 0.532
KRISCYEASYQ [PFKFB3_Y194]	inactive: 0.958
RASQEYHIVKK [PDZD2_Y557_S552R]	inactive: 1.14
YSNKLHYQLEQ [PDPR_Y109_Y109H]	inactive: 0.593

target: SHP2 N-SH2 domain L43F; experiment: as above; settings: peptide library: pTyr-Var

Binder	enrichment score
SVEELYAIPPD [PEAK1_Y797]	inactive: 0.607
SNKLYYQLEQE [PDPR_Y110]	inactive: 0.769
SNSATYSGSVA [PDLIM5_Y382]	inactive: 0.38
SLGSPYEQPPR [PDLIM4_Y137_G138E]	inactive: 0.441
SNKLFYQLEQE [PDPR_Y110_YF]	inactive: 1.05
ASTDFNKRGDF [PDHA1_Y243_Y243N_YF]	inactive: 0.543
AASTDYYKRGD [PDHA1_Y242]	inactive: 0.566
YRDALYKFMVD [PHEX_Y250]	inactive: 1.41
LQTYHYHGHSM [PDHA1_Y289_R288H]	active: 4.19
LNARHYGGLTG [PGAM2_Y92_E89A]	inactive: 0.635
RLFARYFQGDL [PDK3_Y337_YF]	inactive: 0.385
FSNKLYFQLEQ [PDPR_Y109_YF]	inactive: 0.889
RLRAAYNLVKR [PFKM_Y103]	inactive: 0.269
LFIDSYEKDVA [PGM1_Y521_YF]	inactive: 1.07
SLGSPYGQPPC [PDLIM4_Y137_R142C]	inactive: 0.622
ASTDYNKRGDF [PDHA1_Y243_Y243N]	inactive: 0.409
KRISCYEASYQ [PFKFB3_Y194]	inactive: 0.899
RASQEYHIVKK [PDZD2_Y557_S552R]	inactive: 1.32
YSNKLHYQLEQ [PDPR_Y109_Y109H]	inactive: 0.772

target: SHP2 N-SH2 domain T42A; experiment: as above; settings: peptide library: pTyr-Var

Binder	enrichment score
SVEELYAIPPD [PEAK1_Y797]	inactive: 0.634
SNKLYYQLEQE [PDPR_Y110]	inactive: 0.749
SNSATYSGSVA [PDLIM5_Y382]	inactive: 0.333
SLGSPYEQPPR [PDLIM4_Y137_G138E]	inactive: 0.468
SNKLFYQLEQE [PDPR_Y110_YF]	inactive: 0.905
ASTDFNKRGDF [PDHA1_Y243_Y243N_YF]	inactive: 0.465
AASTDYYKRGD [PDHA1_Y242]	inactive: 0.548
YRDALYKFMVD [PHEX_Y250]	inactive: 1.46
LQTYHYHGHSM [PDHA1_Y289_R288H]	inactive: 3.16
LNARHYGGLTG [PGAM2_Y92_E89A]	inactive: 0.722
RLFARYFQGDL [PDK3_Y337_YF]	inactive: 0.328
FSNKLYFQLEQ [PDPR_Y109_YF]	inactive: 0.764
RLRAAYNLVKR [PFKM_Y103]	inactive: 0.36
LFIDSYEKDVA [PGM1_Y521_YF]	inactive: 0.822
SLGSPYGQPPC [PDLIM4_Y137_R142C]	inactive: 0.474
ASTDYNKRGDF [PDHA1_Y243_Y243N]	inactive: 0.422
KRISCYEASYQ [PFKFB3_Y194]	inactive: 0.801
RASQEYHIVKK [PDZD2_Y557_S552R]	inactive: 0.868
YSNKLHYQLEQ [PDPR_Y109_Y109H]	inactive: 0.674

target: SHP2 N-SH2 domain T52S; experiment: as above; settings: peptide library: pTyr-Var

Binder	enrichment score
SVEELYAIPPD [PEAK1_Y797]	inactive: 0.757
SNKLYYQLEQE [PDPR_Y110]	inactive: 0.933
SNSATYSGSVA [PDLIM5_Y382]	inactive: 0.356
SLGSPYEQPPR [PDLIM4_Y137_G138E]	inactive: 0.573
SNKLFYQLEQE [PDPR_Y110_YF]	inactive: 1.12
ASTDFNKRGDF [PDHA1_Y243_Y243N_YF]	inactive: 0.453
AASTDYYKRGD [PDHA1_Y242]	inactive: 0.548
YRDALYKFMVD [PHEX_Y250]	inactive: 1.25
LQTYHYHGHSM [PDHA1_Y289_R288H]	active: 4.66
LNARHYGGLTG [PGAM2_Y92_E89A]	inactive: 0.732
RLFARYFQGDL [PDK3_Y337_YF]	inactive: 0.416
FSNKLYFQLEQ [PDPR_Y109_YF]	inactive: 0.864
RLRAAYNLVKR [PFKM_Y103]	inactive: 0.306
LFIDSYEKDVA [PGM1_Y521_YF]	inactive: 0.835
SLGSPYGQPPC [PDLIM4_Y137_R142C]	inactive: 0.524
ASTDYNKRGDF [PDHA1_Y243_Y243N]	inactive: 0.495
KRISCYEASYQ [PFKFB3_Y194]	inactive: 0.708
RASQEYHIVKK [PDZD2_Y557_S552R]	inactive: 0.789
YSNKLHYQLEQ [PDPR_Y109_Y109H]	inactive: 0.676

target: SHP2 N-SH2 domain wild-type; experiment: as above; settings: peptide library: pTyr-Var

Binder	enrichment score
SVEELYAIPPD [PEAK1_Y797]	inactive: 0.775
SNKLYYQLEQE [PDPR_Y110]	inactive: 1.02
SNSATYSGSVA [PDLIM5_Y382]	inactive: 0.337
SLGSPYEQPPR [PDLIM4_Y137_G138E]	inactive: 0.468
SNKLFYQLEQE [PDPR_Y110_YF]	inactive: 0.872
ASTDFNKRGDF [PDHA1_Y243_Y243N_YF]	inactive: 0.469
AASTDYYKRGD [PDHA1_Y242]	inactive: 0.534
YRDALYKFMVD [PHEX_Y250]	inactive: 1.61
LQTYHYHGHSM [PDHA1_Y289_R288H]	active: 4.05
LNARHYGGLTG [PGAM2_Y92_E89A]	inactive: 0.907
RLFARYFQGDL [PDK3_Y337_YF]	inactive: 0.523
FSNKLYFQLEQ [PDPR_Y109_YF]	inactive: 1.55
RLRAAYNLVKR [PFKM_Y103]	inactive: 0.284
LFIDSYEKDVA [PGM1_Y521_YF]	inactive: 0.919
SLGSPYGQPPC [PDLIM4_Y137_R142C]	inactive: 0.83
ASTDYNKRGDF [PDHA1_Y243_Y243N]	inactive: 0.551
KRISCYEASYQ [PFKFB3_Y194]	inactive: 1.18
RASQEYHIVKK [PDZD2_Y557_S552R]	inactive: 1.1
YSNKLHYQLEQ [PDPR_Y109_Y109H]	inactive: 0.822
